Measured values: paper doi:10.1101/708180 (bioRxiv, 2019)

B1: cHSP27, isolated α-crystallin domain of HSP27 ([…]), oxidized disulfide-linked dimer (domain or fragment)
chain: not shown
B2: cHSP27 with the C137S mutation (domain or fragment)
chain: not shown
B3: HSP27 (HSPB1) P182L variant, full length (natural protein)
chain: not shown

Tests used:
NMR 15N relaxation = target: the molecule itself; assay: NMR 15N relaxation
SEC-MALS = target: the molecule itself; assay: SEC-MALS

Row | Protein | stoichiometry N (NMR 15N relaxation) | stoichiometry N (SEC-MALS)
1 | B1 | 2 | 
2 | B2 |  | 2
3 | B3 |  | ~620 subunits
